The list shows a part of the results.
T1: UNK ZnF1-3 (human, UniProt Q9C0B0 31-174)
T1 sequence: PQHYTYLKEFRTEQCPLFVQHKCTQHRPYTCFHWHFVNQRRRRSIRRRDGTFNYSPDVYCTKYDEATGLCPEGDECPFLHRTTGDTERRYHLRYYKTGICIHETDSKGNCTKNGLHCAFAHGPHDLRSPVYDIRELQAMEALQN

B1: chr6:31461392:31461393:+_ENSMUSG00000025609_ENSMUST00000026699|mus_hu|FALSE|FALSE (ssRNA)
RNA: GGGAGUUCUACAGUCCGACGAUCCAGACCUCUAGACUAGAAGCUUUGGAUAGCCAAGUCAUUUCAGCAUUAAAACAAAUCACAGGGAGAUAGAAGCCAGGGUCUAGAACCACAAAAGAAUAGCGUUAUUUGACUAAUAAGGAUCAACAGAGGAUUGAGCAUCA
B2: chr4:113189463:113189464:+_ENSG00000138660_ENST00000274000|hu_mus|FALSE|FALSE (ssRNA)
RNA: GGGAGUUCUACAGUCCGACGAUCCACAGGGUUCACAAACCCGGAGUACUCAGAGUUGCCGUUGUCGUCCAUCUCGGCACUGACAAAGUCGUUCUCCCACUCCAGCCCGUUGGAGUCAUCCGAGGCGGACGUGGGGUUGCUGCCCAACAGAGGAUUGAGCAUCA
B3: chr14:20710596:20710597:-_ENSMUSG00000043004_ENSMUST00000160013|mus_hu|motif|central (ssRNA)
RNA: GGGAGUUCUACAGUCCGACGAUCAUCCUGUCGAUAUUGGCUUCCAUCUUAAGCUGCUCUACCAGCUUCCUGGCUUGUGCGGUGCUGGCGGUGUUGUUGCUGGCCAUCGGAGUGCUGGAUAGAUCUUUCAGAAACACUCUUCAGCAACAGAGGAUUGAGCAUCA
B4: chr4:140556289:140556290:+_ENSMUSG00000036622_ENSMUST00000037055|mus_mus|mus_mus_mus_hu_False|28_78 (ssRNA)
RNA: GGGAGUUCUACAGUCCGACGAUCGAUGGAGCUCACCAGGCCCCCUUUUGCCGUGCAGAACCCUGUCCGGGUCACCACUGCCAGGACGUGCGGUCCCACAUAGGCCCGGGCCUGCAGGAUGAGGGUCCCGCAGAAGAGUGUGUGCAACAGAGGAUUGAGCAUCA
B5: chr10:33190432:33190433:-_ENSG00000150093_ENST00000302278|hu_mus|hu_hu_hu_mus_True|78_78 (ssRNA)
RNA: GGGAGUUCUACAGUCCGACGAUCUACAUUUUCCAAACCUGCAUGUGAAUAAAACCCUGGCAAUAUUGCCCCAAAACUACCCUACUGUGACUAAGAUGCUGCUGCUGUGAGCUUGGUGUUGCAAAAUCCGCCUGAGUAGGAUUCCAACAGAGGAUUGAGCAUCA
B6: chrX:98862621:98862622:+_ENSMUSG00000034160_ENSMUST00000044475|mus_hu|mus_mus_mus_hu_False|28_88 (ssRNA)
RNA: GGGAGUUCUACAGUCCGACGAUCCUGCAUCUCCUUUAGAGUGUUUCCCAUAUUGGAGUAGGCAUCAGCAAAGGUAGGACUGAUUCGAAUAGCCUCCUUAUAAUGCAUCAGUGCUUCCUGCAGUUUUCCCUGCUGCUGCAGUACCAACAGAGGAUUGAGCAUCA
B7: chr14:78183846:78183847:+_ENSG00000119705_ENST00000557342|hu_hu|hu_hu_hu_mus_False|68_108 (ssRNA)
RNA: GGGAGUUCUACAGUCCGACGAUCUCUGUCUCAAAAAUCUUCAUCAGAUGUUUGAGCUCCGUGCAAAAGUUUUGGCCUUUGAGCUUGAACGUGGAUCUAUGGGAGGGAAAGCACUGUCAGAAAAGGUAAUUUUUUUUUUAAAGACAACAGAGGAUUGAGCAUCA
B8: chr14:96997824:96997825:+_ENSG00000090060_ENST00000216277|hu_hu|motif|central (ssRNA)
RNA: GGGAGUUCUACAGUCCGACGAUCAUUUUUUAGCAGACUGUCAUCUCGUAGAUCCAAAUCUUCAGGAAUUGUCUGCAGUGCGGAUCUUGCAAACAAAAUAUCAAUCUCUAUCCCAUCAAAACAGAGUUUAAUAACUGGUACGAACAACAGAGGAUUGAGCAUCA
B9: chr4:144447494:144447495:+_ENSG00000153147_ENST00000283131|hu_mus|motif|central (ssRNA)
RNA: GGGAGUUCUACAGUCCGACGAUCCCAGUUGUGCAAUGUAGACUUGGGAACCAAAACCAUAUGAGGACCAGGAAUAUUUCGGUAGUGUUUCAUGUAUCCAAGAAGAGAAAUUGUUUGAAGUGUCUUUCCCAAACCCAUUUCAUCCAACAGAGGAUUGAGCAUCA
B10: chr17:66519878:66519879:+_ENSG00000108946_ENST00000358598|hu_hu|FALSE|FALSE (ssRNA)
RNA: GGGAGUUCUACAGUCCGACGAUCACUUCUCUCAUUAUCAUCAAGAUGUGAAAACAGCACAUUCUUUUCAAUGGCUUUGGCUAAAGCGGCCAUUGUCUUGUAAUCUUUUGGUAUAACCUUUCUAACAUAGGAUGCCGCAUCUUCCAACAGAGGAUUGAGCAUCA
B11: chr3:58389886:58389887:+_ENSMUSG00000075700_ENSMUST00000107924|mus_hu|motif|central (ssRNA)
RNA: GGGAGUUCUACAGUCCGACGAUCCUUGCCAACAAUUAUUAAGCCUAUUAAUACUAGUUUGAAGACUGACAGGAAAGAUGCGGUGUGUCUAUAUAUUGGUUGAGGGAGGUAAUUCUCUCCUUCAAUGCGGAUGUCUGGGUACCGCAACAGAGGAUUGAGCAUCA
B12: chr3:87781927:87781928:+_ENSMUSG00000004891_ENSMUST00000090973|mus_hu|motif|central (ssRNA)
RNA: GGGAGUUCUACAGUCCGACGAUCUCCCUUUCCCAGGUUCUCUUCCUCUUCCAGAUUCCUUUGACUUUCCUUGUCGGCCUCCUCUGGAGAUCUCAAAUUCUCCAGGUUCCAUGCUCCCAGAGAUCUCAAUGAUUCCUGAUUCUCCAACAGAGGAUUGAGCAUCA
B13: chr7:118222036:118222037:-_ENSMUSG00000005610_ENSMUST00000162415|mus_hu|motif|central (ssRNA)
RNA: GGGAGUUCUACAGUCCGACGAUCAUCAAAGUUUGGUGCAUCUUCUGCCAAUCGCAGACAUAGCUGAGCAUACAGUGAGCGGUACUUUGGCUCUUCUAGGGCUUUGUCCACAAUCAGCAGUAUGACCCCUUUAAGGAUGAGUUUCAACAGAGGAUUGAGCAUCA
B14: chr1:174042033:174042034:+_ENSMUSG00000026553_ENSMUST00000135192|mus_mus|FALSE|FALSE (ssRNA)
RNA: GGGAGUUCUACAGUCCGACGAUCAGGACGACACUCUCUGUCUAGGCAGUAUACAUUAUUGCCCUUCACUCUGGUGACAUAGAUGGGUAAAUCCAGAGUUCGGAUAAUCCCAUGGUCCCCAGUGGUGACAGCAUAUUUGAUGUGCAACAGAGGAUUGAGCAUCA
B15: chr6:119166446:119166447:+_ENSMUSG00000041477_ENSMUST00000149651|mus_mus|FALSE|FALSE (ssRNA)
RNA: GGGAGUUCUACAGUCCGACGAUCUGCCCAAGGCCUUUGUUUUAAAAAUCAUGAACAAUUUCUGAGGACCUACUCUGAGCUAUGUGAUGAAACAAGUAAAAAAGAUCAAGAUUUUUAAAUAAAUAAAAUAAAAAUAAAAAUAAACAACAGAGGAUUGAGCAUCA
B16: chr3:58389919:58389920:+_ENSMUSG00000075700_ENSMUST00000107924|mus_mus|FALSE|FALSE (ssRNA)
RNA: GGGAGUUCUACAGUCCGACGAUCGCUAGGAGCUUGCAUGCCGAAAAAAGCAAAAGGAUCUUUGCCAACAAUUAUUAAGCCUAUUAAUACUAGUUUGAAGACUGACAGGAAAGAUGCUAUGUGUCUAUAAAUUGGUUGAGGGAGCAACAGAGGAUUGAGCAUCA
B17: chr6:38652254:38652255:-_ENSG00000124767_ENST00000373365|hu_hu|hu_hu_hu_mus_False|88_108 (ssRNA)
RNA: GGGAGUUCUACAGUCCGACGAUCCGAAAACUUCAUAGCAGGGAAGUCACAUUUUUGCAGGAGGGUCAGUCCAAGAACCCUCGUAUAAAAAUCCAGGGACUUCUUAGGAUCCUUAAUUCUUAGCAUCGUUUGCUGCAGUAGAAACAACAGAGGAUUGAGCAUCA
B18: chr2:130640030:130640031:-_ENSMUSG00000027309_ENSMUST00000044766|mus_hu|FALSE|FALSE (ssRNA)
RNA: GGGAGUUCUACAGUCCGACGAUCAUAGCGAAAGUUUACAGGAUUACAGUACAGAUGGACGCUAUCCGAUUUAAUCAAUAUAAUUACAUCAUCUAGUACUUCUUCAGAAAAUCCCGUUUUCUCAAAAUCACUGGUAUUCUGAUUCAACAGAGGAUUGAGCAUCA
B19: chr17:8508246:8508247:-_ENSG00000133026_ENST00000269243|hu_hu|FALSE|FALSE (ssRNA)
RNA: GGGAGUUCUACAGUCCGACGAUCGUACAUUUCAAUAAUAUUCUCAGAGUAAAUUGGAAGAUUCUUGUAAGGGUUUAUAACUACACAGAAGAGUCCAGAAUAAGUAUAGAUUAGUCCUGAAUAGUAGCGAUCCUUCAGAUUAUGCAACAGAGGAUUGAGCAUCA
B20: chr5:180275300:180275301:-_ENSG00000196670_ENST00000512132|hu_mus|FALSE|FALSE (ssRNA)
RNA: GGGAGUUCUACAGUCCGACGAUCAGUUGUGAUCUUCCUACCACAAACCAUUACUGUUAAGUCUAUAAUUCAUGACCCACUAAUAAACUGAUAUUCCCUGAAACCAUCCUCUCCCUGAAUUUGCCUGUUGGAGGCCCUUCUUGGCAACAGAGGAUUGAGCAUCA
B21: 53426069_53429338_2499_3pUTR_ENSMUSG00000032030_ENSMUST00000166367|mouse|control|control (ssRNA)
RNA: GGGAGUUCUACAGUCCGACGAUCCAUUGCUAAUUUUCUUUCUCAUUUUCAUUAUUUGUAUGAUGGCUUCCUGGGUUCUUAAUAUUCUUAGUUGGACUAUCCCUUCAUUUUCUUCUUCUCUCAUUCGUUCUGUAGUGAGCUGCACAACAGAGGAUUGAGCAUCA
B22: chr2:117085994:117085995:+_ENSMUSG00000027349_ENSMUST00000028825|mus_mus|motif|central (ssRNA)
RNA: GGGAGUUCUACAGUCCGACGAUCAGACUUGGGGACCCCGAGGGCAUCACAUACAGCUUGAACUUCCUGGCAAAUUUCACGGUUUUUAUCUAACUGAGAAUUUUUAUGUUUUUUCUUCUGUAAUAUUUGUAAAGCUUGAAGUUCCAACAGAGGAUUGAGCAUCA

Target: T1, UNK ZnF1-3
Assay: nsRBNS (natural sequence RNA bind-n-seq); RBNS binding buffer (assumed for nsRBNS): 25 mM Tris pH 7.5, 150 mM KCl, 3 mM MgCl2, 0.01% Triton X-100, 500 ug/ml BSA, 20 U/ml SUPERase-In, 4 C; UNK is unkempt and MSI1 is Musashi-1; names of the RNAs are library labels; protein concentration not given here; high values mean tight binding

| Binder | binding signal [enrichment R] |
| --- | --- |
| B1 | 1.95 |
| B2 | 0.53 |
| B3 | 0.591 |
| B4 | 1.38 |
| B5 | 1.2 |
| B6 | 0.923 |
| B7 | 1.98 |
| B8 | 0.669 |
| B9 | 1.56 |
| B10 | 0.866 |
| B11 | 1.07 |
| B12 | 0.5 |
| B13 | 0.648 |
| B14 | 0.724 |
| B15 | 0.877 |
| B16 | 1.83 |
| B17 | 0.85 |
| B18 | 0.578 |
| B19 | 1.37 |
| B20 | 0.812 |
| B21 | 0.337 |
| B22 | 1.2 |

Source: paper PMC12136788
